Over roughly 110,000 compounds, “z-score” has its median near -0.1; the highest 2% begin near 2. The list shows a part of the results. Activity calls are given as the source filed them.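 How the source made its calls: active means z-score in the third read window above 3 or below -3; inactive means the rest.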
Each molecule was assayed against Metabotropic glutamate receptor 8 (Rattus norvegicus) (UniProt P70579) (assay: mGluR8 Gi/Go-coupled signaling modulation – cell-based, rat, thallium flux, HTS, primary screen (AID 488969)). Conditions: HEK293 rat mGluR8, GIRK (G protein-gated inwardly rectifying potassium channel) thallium flux, FluoZin2; at 10 µM; stronger effect = higher value; submaximal glutamate (EC20) added with thallium.
Sequence of UniProt P70579 (P70579 whole entry, looked up): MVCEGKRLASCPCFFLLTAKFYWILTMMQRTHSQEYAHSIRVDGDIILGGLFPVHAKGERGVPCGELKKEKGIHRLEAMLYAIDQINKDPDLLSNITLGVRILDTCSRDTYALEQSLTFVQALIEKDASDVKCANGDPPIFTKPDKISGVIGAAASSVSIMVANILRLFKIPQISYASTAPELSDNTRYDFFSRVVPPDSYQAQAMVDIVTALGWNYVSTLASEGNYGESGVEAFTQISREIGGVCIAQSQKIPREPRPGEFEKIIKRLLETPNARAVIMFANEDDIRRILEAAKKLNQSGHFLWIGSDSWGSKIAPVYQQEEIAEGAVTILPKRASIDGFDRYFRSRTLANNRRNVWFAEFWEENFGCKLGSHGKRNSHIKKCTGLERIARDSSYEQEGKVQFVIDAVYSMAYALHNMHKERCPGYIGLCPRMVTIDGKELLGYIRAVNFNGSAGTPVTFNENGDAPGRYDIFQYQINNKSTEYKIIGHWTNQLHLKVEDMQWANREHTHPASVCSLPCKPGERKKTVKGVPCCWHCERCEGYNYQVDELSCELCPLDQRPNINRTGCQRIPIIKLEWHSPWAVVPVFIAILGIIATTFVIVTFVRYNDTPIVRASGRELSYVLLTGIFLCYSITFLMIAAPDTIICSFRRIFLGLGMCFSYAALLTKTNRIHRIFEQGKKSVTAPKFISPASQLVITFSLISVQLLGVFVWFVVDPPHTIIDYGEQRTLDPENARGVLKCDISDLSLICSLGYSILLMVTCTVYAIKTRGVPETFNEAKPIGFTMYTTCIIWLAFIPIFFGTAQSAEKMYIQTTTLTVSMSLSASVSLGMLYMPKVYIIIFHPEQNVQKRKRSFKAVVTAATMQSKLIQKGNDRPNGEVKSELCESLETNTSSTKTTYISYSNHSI

Point of comparison: `COc1ccc(N2CCN(C(=O)CSc3ncnc4c3cnn4-c3ccccc3C)CC2)cc1`, z-score -0.36. Against it:
- O=C(COC(=O)c1c2c(nc3ccccc13)CCCCC2)c1ccc(Cl)s1 — higher, -0.0776
- Cc1ccc2cc3c(NC(=O)c4ccco4)nn(C)c3nc2c1 — lower, -0.516
- Cc1nc(-c2cn[nH]c2)c2cc(C)oc2n1 — lower, -0.371
- Cc1cc(C)c(CSc2ncc(-c3ccc([N+](=O)[O-])cc3)[nH]2)c(C)c1 — higher, -0.26
- COCCN(CCOC)S(=O)(=O)c1ccc(C(=O)Nc2nc(C)c(C(C)=O)s2)cc1 — higher, -0.266
- CN(C)c1ccc(C(=S)Nc2ccccc2)cc1 — higher, -0.296
- CCCC(=O)Nc1ccc(NC(=O)c2ccccc2Cl)nc1 — higher, -0.116
- COc1ccc(-c2cc(CNC(=O)CN(C)Cc3ccccc3)on2)cc1 — higher, -0.113
- COc1ccc(CCNC(=O)c2nonc2N)cc1 — higher, -0.242
- C=CCc1c(C)[nH]c2ccc(C)cc2c1=O — higher, 0.0753
- CC(C)n1cc(/C=C2/SC(=O)N(CC(=O)Nc3ccc4c(c3)OCO4)C2=O)c2ccccc21 — higher, 0.16
- Cc1ccc2[nH]c(=O)c(CN(Cc3cccnc3)Cc3nnnn3CCN3CCOCC3)cc2c1 — higher, 0.479
- CCCn1nc(NC(=O)C2CCCO2)c2cc3cc(C)ccc3nc21 (stereo unspecified) — higher, 0.0638
- COC(=O)c1cc2ccsc2n1Cc1cc(=O)n2ccccc2n1 — higher, -0.127
- COc1ccc(C2=CC(c3cccc(OC)c3)n3nnnc3N2)cc1 (stereo unspecified) — higher, -0.0249
- CCOc1cc(C(=O)N(C)Cc2cc3cc(OC)ccc3[nH]c2=O)cc(OCC)c1OCC — higher, 0.225
- Cc1ccc2nc(SCc3cn4cccnc4n3)[nH]c2c1 — higher, 0.132
- CCC1Oc2ccc(C)cc2N(CC(=O)N(Cc2ccc(C)o2)C2CC(C)(C)NC(C)(C)C2)C1=O (stereo unspecified) — higher, 0.58
- CSc1cccc(NC(=O)C2CCCN2S(=O)(=O)c2ccc(Br)s2)c1 (stereo unspecified) — lower, -0.411
- CCn1c(SCC(=O)N2CCCCC2)nc2c(c1=O)SC(C)C2 (stereo unspecified) — lower, -1.57
- Cc1nnc(C)n1/N=C/c1ccccc1 — higher, 0.733
- COc1cccc(CNC(=O)Cc2nc3nc(C)cc(C)n3n2)c1 — higher, -0.187
- O=C(Nc1nc2ccccc2n1CCN1CCCCC1)c1ccc(Cl)cc1 — higher, 0.975
- CCOC(=O)c1cnc(-c2ccccc2)nc1Oc1ccccc1 — higher, -0.19
- O=C(NCCc1cccs1)C12CN(Cc3ccccc3)CC1C(c1cccc([N+](=O)[O-])c1)=NO2 (stereo unspecified) — lower, -0.481
- Cc1onc(-c2ccccc2Cl)c1C(=O)N/N=C(\N)COc1ccc(Cl)cc1 — higher, -0.00188
- COc1ccc(-c2nn(-c3ccccc3)cc2/C=N/n2cnnc2)cc1OC — lower, -0.958
- COc1ccc(C(=O)NCc2nnc(SCC(=O)Nc3cc(C)cc(C)c3)o2)cc1OC — lower, -0.401
- COc1ncnc2sc3c(c12)CCCC3 — higher, -0.287
- CCOc1ccccc1-n1nnnc1SCC(=O)Nc1cc2oc3ccccc3c2cc1OC — higher, 0.384
- c1ccc(-c2noc(-c3cccc4ccccc34)n2)nc1 — lower, -0.375
- COc1ccc(OCCC(=O)NC2=NCCS2)cc1 — higher, -0.277
- COc1ccc(C)cc1NC(=O)CSc1nnc(-c2cc3cccc(OC)c3o2)n1N — higher, -0.21
- Cc1cc(C)c2c(=O)[nH]c(SCC(=O)N(C)C)nc2n1 — lower, -0.499
- C=CCc1ccc(OCCn2cccc2C=O)c(OC)c1 — lower, -0.437
- CCCOc1ccc2c(=O)c(-c3cc(C(=O)OC)oc3C)c(C)oc2c1 — higher, -0.282
- Cc1[nH]c2ccc(OC(=O)N3CCOCC3)cc2c1C(=O)OC(C)C — higher, -0.288
- CCCSc1nc2c(c(=O)n1CC)SC(C)C2 (stereo unspecified) — lower, -0.713
- CCOCC(O)CNc1ccccc1 (stereo unspecified) — higher, -0.0266
- O=C(NCc1ccccc1)C(c1ccccc1)N(Cc1cccs1)C(=O)c1cnccn1 (stereo unspecified) — higher, 0.21
- CCOCCCNS(=O)(=O)c1ccc(NC(=O)c2ccc([N+](=O)[O-])cc2Cl)cc1 — lower, -0.485
- N#C/C(=C\c1ccccc1)c1n[nH]c(Cn2cncn2)n1 — lower, -0.763
- CCc1nnc(NC(=O)CN2CCN(C3CCCCC3)CC2)s1 — higher, 1.07
- CCOC(=O)c1c(C(F)(F)F)nc2ncccn12 — lower, -0.534
- c1ccc(-c2nnc3n2NC(c2ccc4c(c2)OCO4)S3)cc1 (stereo unspecified) — higher, 1.86
- COc1cc(N=Cc2c(O)[nH]c3ccccc23)cc(OC)c1OC — lower, -0.838
- CC(=O)Nc1ccc(C#Cc2ccc(NC(C)=O)cc2)cc1 — higher, -0.144
- COc1ccc(OC)c(S(=O)(=O)Nc2ccc(O)c3ccccc23)c1 — higher, -0.0409
- Cc1ccc(S(=O)(=O)Oc2ccccc2/C=N/NC(=O)c2nn(C)cc2[N+](=O)[O-])cc1 — higher, -0.0644
- COc1ccc(N2CC(C(=O)Nc3nccs3)CC2=O)cc1 (stereo unspecified) — lower, -0.576
- COC(=O)c1ccc(NC(=O)CCN2CCCCC2)cc1 — higher, -0.167
- Cc1cccc(/C=C/C(=O)c2ccc(NC3=NCCCS3)cc2)c1 — higher, -0.306
- O=C(NCC(=O)N(c1cnc2ccccc2c1)C(C(=O)NC1CCCC1)c1ccncc1)c1ccco1 (stereo unspecified) — higher, 0.282
- CC1(C)CC(=O)C/C(=N/NC(=O)CCCOc2ccc(Cl)cc2Cl)C1 — higher, -0.05
- N#Cc1ccc(-n2c(-c3ccccc3)nnc2-c2ccccc2)cc1C#N — higher, 0.19
- Nc1nc(CSC(=S)N2CCN(c3ccccc3)CC2)nc(Nc2ccc(F)cc2)n1 — higher, -0.156
- Cc1nc2ccccc2c2oc(C(=O)Nc3ccc4c(c3)OCCO4)cc12 — higher, -0.135
- Cc1ccc(NC2=C(Cl)C(=O)OC2OC(C)C)c(C)c1 (stereo unspecified) — higher, -0.0319
- CCOc1c2ccc(C(=O)NC3CCCc4ccccc43)cc2nn1C (stereo unspecified) — higher, 0.0615
- COCn1c(COc2ccc3ccccc3c2)nc2ccccc21 — higher, -0.203
- COc1ccc(CCN2C(=O)c3[nH]nc(-c4ccccc4O)c3C2c2cccc(O)c2)cc1OC (stereo unspecified) — higher, 1.66
- COc1ccc(S(=O)(=O)N2CCN(c3nc4ccccc4nc3-n3nc(C)cc3C)CC2)cc1 — higher, -0.27
- COc1cc(C(=O)OC2CCCCC2=O)cc(OC)c1C (stereo unspecified) — higher, 1.1
- CCCc1nc(SCC(=O)N2c3ccccc3CC2C)c2c(C)c(C)sc2n1 (stereo unspecified) — higher, 0.245
- COc1cccc2cc(C(=O)N3CCN(c4ncccn4)CC3)c(=O)oc12 — higher, -0.344
- Cc1cccc(NC2=NC3(CCCCC3)N=C(N)N2)c1C — higher, 0.0252
- Cc1c(C(=O)OC(C)C)sc(NC(=O)C2CCCO2)c1C(=O)OC(C)C (stereo unspecified) — higher, -0.0386
- COc1cc(S(=O)(=O)N(Cc2cccs2)CC2CCCO2)ccc1-n1cnnn1 (stereo unspecified) — higher, -0.12
- Cc1cccc(N(CC(=O)NC2CCCC2)C(=O)CS(=O)CC(=O)Nc2ccc3c(c2)OCO3)c1C (stereo unspecified) — higher, -0.253
- CC1CCN(S(=O)(=O)c2ccc(NC(=O)CN3CCCC(C)C3)cc2)CC1 (stereo unspecified) — higher, 0.282
- COCCCNc1ncnc2ccc(C)cc12 — higher, -0.177
- COc1c(/C=N/NC(N)=S)c(C)nn1-c1ccccc1 — higher, -0.095
- c1ccc2c3nnc4n(c-3nc2c1)CCCS4 — higher, -0.272
- CNC(=S)Nc1ccccc1-c1ccccc1 — higher, -0.0706
- CCOC(=O)Nc1ccc(S(=O)(=O)N2CCOCC2)cc1 — lower, -0.614
- Cc1nnc(SCC(=O)Nc2ccc(N3CCOCC3)cc2)n1-c1ccccc1 — lower, -0.401
- O=C(NCc1ccc(Cl)cc1Cl)C(=O)N1CCCCC1 — higher, 0.112
- COC(=O)c1ccc(NC(=S)N2CCN(Cc3ccccc3)CC2)cc1 — lower, -0.693
- Cn1c(SCC(=O)c2ccccc2)nc2cccnc21 — higher, 0.0229
- O=C(CCNc1cc(Cl)cc(Cl)c1)c1cccs1 — higher, 0.0113
- Cc1cccc(/C=N/NC(=O)Cn2nc(C)cc2C)n1 — higher, 0.538
- COC(=O)[C@H](C)NC(=O)Nc1ccc(S(N)(=O)=O)cc1 — higher, -0.275
- Cc1nc(NC(C)c2ccccc2)c2c3c(sc2n1)CCC3 (stereo unspecified) — higher, 1.26e-05
- O=C(CCCN1C(=O)/C(=C/c2cccc(Br)c2)SC1=S)Nc1ccccn1 — higher, 0.645
- CCc1cc2c(=O)nc3n(c2s1)Cc1ccccc1/C3=C(/O)c1cccc([N+](=O)[O-])c1 — higher, 0.539
- Cc1cc(C(=O)Nc2c(F)cc(F)cc2Br)no1 — higher, 0.293
- CCN(CC)CCOC(=O)c1ccc(NC(=O)/C=C/c2cccs2)cc1 — higher, -0.262
- c1nc(COc2nsnc2N2CCOCC2)cs1 — higher, -0.000248
- O=C(CN(CC1CCCO1)S(=O)(=O)c1ccc(S(=O)(=O)NC2CC2)cc1)Nc1ccccc1 (stereo unspecified) — higher, 0.0542
- CC1CCCC(C)N1CCNC(=O)Cn1nc(-c2ccccc2)ccc1=O (stereo unspecified) — higher, 0.0773
- CCn1nnnc1SCC(=O)Nc1nc2ccc(OC)cc2s1 — higher, 0.462
- COc1cc(SC#N)ccc1N=Cc1c(C)[nH]n(-c2ccc(C)c(C)c2)c1=O — higher, 0.116
- CCCC(NS(=O)(=O)c1ccc(OC)cc1)C(=O)O (stereo unspecified) — higher, 0.0385
- Cc1onc(-c2ccccc2)c1-c1n[nH]c(=S)n1-c1ccc(C(=O)O)cc1 — higher, 0.0053
- COc1cc2c(cc1OC)C(c1cc3ccccc3oc1=O)=NC(C)(C)C2 — higher, 1.03
- O=[N+]([O-])C(/C=C(\Cl)[N+](=O)[O-])=C1N(Cc2ccc(Cl)nc2)CCN1Cc1ccc(Cl)nc1 — higher, -0.212
- O=C(CCn1c(=S)[nH]c2ccccc2c1=O)NCC1CCCO1 (stereo unspecified) — higher, -0.275
- N#Cc1nc(-c2cccc(Cl)c2)oc1NCc1cccnc1 — lower, -0.665
- CCCC1=NN(C(=O)CCc2ccccc2O)C(O)(C(F)(F)F)C1 (stereo unspecified) — higher, -0.16
- Cc1ccc(Cn2c(CN3CCN(C(=O)c4ccco4)CC3)nc3c2c(=O)n(C)c(=O)n3C)cc1 — higher, -0.356
- COc1ccccc1NC(=O)CSc1nc(O)cc(=O)[nH]1 — higher, 0.596
- COc1ccc(NC(=O)C2CCCO2)cc1 (stereo unspecified) — higher, 0.12
- CCN(CC)S(=O)(=O)c1ccc(N=Nc2c(C)[nH]n(C(N)=S)c2=O)cc1 — higher, 0.608
- COc1cc(C)c(Br)cc1S(=O)(=O)N1CCCC1 — higher, 0.188
- CCOc1ccc(NC(=O)c2cc(SC)ccc2Cl)cc1 — higher, -0.217
- CCOC(=O)N1CCN(Cc2nc3c(c(=O)n(C)c(=O)n3C)n2Cc2ccccc2)CC1 — lower, -0.452
- CC(=O)C1=C(C)NC(SCC(N)=O)=C(C#N)C1C (stereo unspecified) — higher, -0.259
- CCCCN(CCCC)CC(O)CN1C(=O)NC(C)(C)C1=O (stereo unspecified) — higher, -0.194
- O=C(NCC1CCCO1)C1CCC(=O)N1Cc1ccc(F)cc1 (stereo unspecified) — higher, -0.109

In the case of `O=C(CSc1cccc2cccc(Cl)c12)NCc1cccs1`, the z-score is reported as active: 3.5.
